Laboratory results: patent US20060263362A1
For part of its entries the source gives two or more results. The list is limited to them. An entry can have further records. The records of an entry appear to be repeats on other runs, samples or individuals.

Biological target: sm1.2 (manufactured by Upstate Biotechnology), commercially available anti-hIGF-I antibody
Test: competitive ELISA: free hIGF-I varied, against binding of sm1.2 (4.0 µg/mL) to plate-bound methylated BSA-hIGF-I

With “human insulin-like growth factor-I (from UniProt P05019 49-118) (ligand)” the IC50 was 1.2 µg/mL and 156 nM.
